A number of entries come with more than one value. They are shown here; other results are not.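 How the source made its calls: active means inhibition above 20% at 50 µM; inactive means the rest.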 An entry can have further records. The values listed for one entry are repeated measurements across runs, samples, wells, individuals or studies. What stands in brackets tells the records apart. Letters count within one entry.
Molecular target: Kelch-like ECH-associated protein 1 (Homo sapiens) (UniProt Q14145)
Assay: Keap1 Kelch binding to Nrf2 peptide inhibition, confirmation, orthogonal assay for Keap1-Nrf2 interaction inhibitor project, biophysical, competitive SPR, dry powder (AID 651876)
Settings: at 50 µM, stronger effect = higher value
Outline: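 Test system: Keap1 Kelch domain, biochemical. Quantity: 40 nM Kelch domain. Also added: biotinylated 16mer Nrf2 peptide captured on streptavidin CM5 surface. Doses: compound at 5 or 50 µM. Times: room-temperature preincubation, 25 °C binding. Signal: Double-referenced surface plasmon resonance, initial association-phase slopes. Measure: % inhibition via free Kelch domain fraction.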

Sequence of UniProt Q14145 (Q14145 whole entry, looked up): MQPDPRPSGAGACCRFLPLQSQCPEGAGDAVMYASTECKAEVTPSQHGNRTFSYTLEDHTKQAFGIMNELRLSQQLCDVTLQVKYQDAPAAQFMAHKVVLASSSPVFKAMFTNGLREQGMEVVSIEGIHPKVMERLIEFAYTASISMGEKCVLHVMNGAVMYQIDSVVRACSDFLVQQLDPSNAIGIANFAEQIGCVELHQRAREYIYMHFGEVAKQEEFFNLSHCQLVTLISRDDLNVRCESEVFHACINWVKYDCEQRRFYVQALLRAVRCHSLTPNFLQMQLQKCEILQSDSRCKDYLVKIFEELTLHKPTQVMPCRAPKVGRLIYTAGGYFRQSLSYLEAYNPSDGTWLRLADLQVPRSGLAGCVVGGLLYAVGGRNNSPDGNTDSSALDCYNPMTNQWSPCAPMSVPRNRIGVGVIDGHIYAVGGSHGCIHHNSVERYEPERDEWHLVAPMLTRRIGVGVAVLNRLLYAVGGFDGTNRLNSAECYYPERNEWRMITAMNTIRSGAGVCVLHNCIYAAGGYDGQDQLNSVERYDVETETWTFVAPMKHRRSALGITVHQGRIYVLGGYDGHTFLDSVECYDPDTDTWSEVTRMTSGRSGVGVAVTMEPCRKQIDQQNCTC

SMILES | inhibition
O=C(O)[C@H]1CCCC[C@H]1C(=O)N1CCC2=C(CCCC2)C1CN1C(=O)c2ccccc2C1=O (some centres not stated) | 65% [sample A] and inactive: 12.6% [sample B]
Cc1ccc(S(=O)(=O)NC(=O)[C@@H]2c3ccccc3CCN2C(=O)[C@@H]2CCCC[C@@H]2C(=O)O)cc1 | 39.6% [sample A] and inactive: 3.9% [sample B]

From PubChem BioAssay AID651876 (Broad Institute, 2012)
